According to patent publication US20220267409A1 (KAHR MEDICAL, published 2022):

Columns and labels:
[1] = biological target: T1, human PDL1 expressed on DLD1-PDL1 cells (human, UniProt Q9NZQ7); experiment: flow cytometry on DLD1-PDL1 cells against DLD1 WT cells, dilutions of supernatant, detection with anti-4-1BBL antibody
T1 construct: whole, on cells; also called CD274; DLD1 PDL1 overexpressing cell line
Method: The binding of the PD1 domain of heterodimers comprising a PD1 domain and a 4-1BBL domain (e.g. PD1-4-3xsc1BBL, SIRPα-PD1-3xsc4-1BBL heterodimers) to human PDL1 is determined using DLD1-PDL1 cell line overexpressing PDL1. DLD1-WT cells serve as a control as it expresses low levels of endogenous PDL1 (FIG. 8A). Cells are incubated with different dilutions of supernatant containing the heterodimers, followed by immuno-staining with a conjugated anti 4-1BBL antibody. Binding is analyzed by flow cytometry.
Methods—Cells were incubated with serial dilutions of the produced heterodimers-containing supernatants for 20 minutes at 4° C., followed by immuno-staining with conjugated antibody against 4-1BBL and analyzed by flow cytometry. In some cases, cells underwent pre-incubation with anti CD47 blocker antibody prior to the incubation with the supernatants.

[2] = biological target: T2, human CD155 (PVR) endogenously expressed on DLD-1 WT cells (human, UniProt P15151 21-417); experiment: flow cytometry on DLD-1 WT cells (endogenous CD155) against U937 cells, dilutions of supernatant, detection with anti-4-1BBL antibody
T2 construct: whole, on cells
T2 sequence (looked up): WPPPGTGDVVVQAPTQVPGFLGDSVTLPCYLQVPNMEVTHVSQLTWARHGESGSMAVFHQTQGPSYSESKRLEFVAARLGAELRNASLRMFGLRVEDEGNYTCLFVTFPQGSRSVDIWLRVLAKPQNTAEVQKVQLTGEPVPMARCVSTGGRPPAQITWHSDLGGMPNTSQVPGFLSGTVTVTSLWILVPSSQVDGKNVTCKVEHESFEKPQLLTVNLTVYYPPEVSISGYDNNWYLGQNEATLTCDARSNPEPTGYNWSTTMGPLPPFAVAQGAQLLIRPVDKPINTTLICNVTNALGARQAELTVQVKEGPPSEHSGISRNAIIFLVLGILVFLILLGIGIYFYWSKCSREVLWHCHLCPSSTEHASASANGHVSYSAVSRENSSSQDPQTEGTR
Method: Binding was determined following incubation of the cells with the heterodimer by immuno-staining of its 4-1BBL domain using an anti-4-1BBL antibody, followed by flow cytometric analysis.
The binding of the TIGIT domain of heterodimers comprising a TIGIT domain and a 4-1BBL domain (e.g. TIGIT-Fc-PD1-3xSc-4-1BBL heterodimer) to human CD155 is determined using a DLD-1 WT cell line endogenously expressing CD155. U937 cells serve as a negative control as they don't express endogenous CD155. Cells are incubated with different dilutions of supernatant containing the heterodimers, followed by immuno-staining with a conjugated anti 4-1BBL antibody. Binding is analyzed by flow cytometry.
Methods—Cells were incubated with serial dilutions of the produced heterodimers-containing supernatants for 20 minutes at 4° C., followed by immuno-staining with conjugated antibody against 4-1BBL, and analyzed by flow cytometry.

[3] = biological target: T3, human CD40 expressed on HT1080-CD40 cells (human, UniProt P25942 21-277); experiment: flow cytometry on HT1080-CD40 cells against HT1080 WT cells, dilutions of supernatant, detection with anti-PD1 antibody
T3 construct: whole, on cells; also called HT1080 overexpressing CD40 cells
Method: The binding of the heterodimer to the CD40 expressing cell line was determined following incubation of the cells with the heterodimer by immuno-staining of its PD1 domain using an anti-PD1 antibody, followed by flow cytometric analysis.
The binding of the CD40L domain of heterodimers comprising a CD40L domain and a PD1 domain (e.g. SIRPα-PD1-3xscCD40L heterodimer) to human CD40 is determined using a HT1080-CD40 cell line overexpressing CD40. HT1080 WT cells serve as a negative control as they don't express endogenous CD40. Cells are incubated with different dilutions of supernatant containing the heterodimers, followed by immuno-staining with conjugated anti-PD-1 antibody. Binding is analyzed by flow cytometry.

T1 sequence (Q9NZQ7 19-290): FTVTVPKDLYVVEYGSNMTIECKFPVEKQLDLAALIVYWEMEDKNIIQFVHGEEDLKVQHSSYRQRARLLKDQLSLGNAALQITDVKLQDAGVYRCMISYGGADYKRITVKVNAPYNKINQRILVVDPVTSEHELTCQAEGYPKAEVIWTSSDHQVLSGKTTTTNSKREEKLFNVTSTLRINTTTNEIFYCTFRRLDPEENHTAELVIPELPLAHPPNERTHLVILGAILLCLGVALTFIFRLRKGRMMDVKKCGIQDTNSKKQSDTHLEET
T3 sequence (P25942 21-277): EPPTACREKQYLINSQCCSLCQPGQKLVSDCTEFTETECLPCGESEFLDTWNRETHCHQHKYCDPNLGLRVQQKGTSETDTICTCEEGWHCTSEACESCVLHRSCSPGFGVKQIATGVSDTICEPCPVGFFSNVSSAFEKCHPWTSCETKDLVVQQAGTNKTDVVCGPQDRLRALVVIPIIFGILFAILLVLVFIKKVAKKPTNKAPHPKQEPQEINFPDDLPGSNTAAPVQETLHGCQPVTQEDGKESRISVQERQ

B1: SIGLEC10-Fc-PD1-3xsc-4-1BBL heterodimer TSP401 (SEQ ID NOs: 150 and 79) (Fc fusion)
chain 1: DGRFWIRVQESVMVPEGLSISVPCSFSYPRQDWTGSTPAYGYWFKAVTETTKGAPVATNHQSREVEMSTRGRFQLTGDPAKGNCSLVIRDAQMQDESQYFFRVERGSYVRYNFMNDGFFLKVTALTQKGGGGSGGGGS[human IgG4 Fc with S228P L235E Y349C T366W (EU numbers) omitted here]
chain 2: DSPDRPWNPPTFSPALLVVTEGDNATFTCSFSNTSESFVLNWYRMSPSNQTDKLAAFPEDRSQPGQDSRFRVTQLPNGRDFHMSVVRARRNDSGTYLCGAISLAPKAQIKESLRAELRVTERRAEVPTAHPSPSPRPAGQGGGGSGGGGSESKYGPPCPPCPAPEFEGGPSVFLFPPKPKDTLMISRTPEVTCVVVDVSQEDPEVQFNWYVDGVEVHNAKTKPREEQFNSTYRVVSVLTVLHQDWLNGKEYKCKVSNKGLPSSIEKTISKAKGQPREPQVYTLPPSQCEMTKNQVSLSCAVKGFYPSDIAVEWESNGQPENNYKTTPPVLDSDGSFFLVSRLTVDKSRWQEGNVFSCSVMHEALHNHYTQKSLSLSLGKGGGGSGGGGSAASPRLREGPELSPDDPAGLLDLRQGMFAQLVAQNVLLIDGPLSWYSDPGLAGVSLTGGLSYKEDTKELVVAKAGVYYVFFQLELRRVVAGEGSGSVSLALHLQPLRSAAGAAALALTVDLPPASSEARNSAFGFQGRLLHLSAGQRLGVHLHTEARARHAWQLTQGATVLGLFRVTPEIPAGLPSPRSEGGGGSGGGGSGGGGSAASPRLREGPELSPDDPAGLLDLRQGMFAQLVAQNVLLIDGPLSWYSDPGLAGVSLTGGLSYKEDTKELVVAKAGVYYVFFQLELRRVVAGEGSGSVSLALHLQPLRSAAGAAALALTVDLPPASSEARNSAFGFQGRLLHLSAGQRLGVHLHTEARARHAWQLTQGATVLGLFRVTPEIPAGLPSPRSEGGGGSGGGGSGGGGSAASPRLREGPELSPDDPAGLLDLRQGMFAQLVAQNVLLIDGPLSWYSDPGLAGVSLTGGLSYKEDTKELVVAKAGVYYVFFQLELRRVVAGEGSGSVSLALHLQPLRSAAGAAALALTVDLPPASSEARNSAFGFQGRLLHLSAGQRLGVHLHTEARARHAWQLTQGATVLGLFRVTPEIPAGLPSPRSE
notes: Knob-into-hole hIgG4 Fc heterodimer made in Expi293F cells; tested as culture supernatant; also called SIGLEC10-PD1-sc3x4-1BBL heterodimer
B1: binds [1].

B2: TIGIT-Fc-PD1-3xsc-4-1BBL heterodimer TSP501 (SEQ ID NOs: 152 and 79) (Fc fusion)
chain 1: MTGTIETTGNISAEKGGSIALQCHLSSTTAQVTQVNWEQQDQLLAISNADLGWHISPSFKDRVAPGPGLGLTLQSLTVNDTGEYFCIYHTYPDGTYTGRIFLEVLESSVAEHGGGGSGGGGS[human IgG4 Fc with S228P L235E Y349C T366W (EU numbers) omitted here]
chain 2: B1 chain 2
notes: Knob-into-hole hIgG4 Fc heterodimer made in Expi293F cells; tested as culture supernatant; also called TIGIT-PD1-sc3x4-1BBL heterodimer; PD1-TIGIT-sc3x4-1BBL heterodimer
B2: binds [1]; binds [2].

B3: PD1-SIRPα-Fc-3xscCD40L heterodimer TSP112 (SEQ ID NOs: 81 and 146) (Fc fusion)
chain 1: DSPDRPWNPPTFSPALLVVTEGDNATFTCSFSNTSESFVLNWYRMSPSNQTDKLAAFPEDRSQPGQDSRFRVTQLPNGRDFHMSVVRARRNDSGTYLCGAISLAPKAQIKESLRAELRVTERRAEVPTAHPSPSPRPAGQGGGGSGGGGS[human IgG4 Fc with S228P L235E Y349C T366W (EU numbers) omitted here]
chain 2: [about 350 residues omitted here]GGGGSGGGGSESKYGPPCPPCPAPEFEGGPSVFLFPPKPKDTLMISRTPEVTCVVVDVSQEDPEVQFNWYVDGVEVHNAKTKPREEQFNSTYRVVSVLTVLHQDWLNGKEYKCKVSNKGLPSSIEKTISKAKGQPREPQVYTLPPSQCEMTKNQVSLSCAVKGFYPSDIAVEWESNGQPENNYKTTPPVLDSDGSFFLVSRLTVDKSRWQEGNVFSCSVMHEALHNHYTQKSLSLSLGKGGGGSGGGGSGGGGSGGGGSQKGDQNPQIAAHVISEASSKTTSVLQWAEKGYYTMSNNLVTLENGKQLTVKRQGLYYIYAQVTFCSNREASSQAPFIASLSLKSPGRFERILLRAANTHSSAKPCGQQSIHLGGVFELQPGASVFVNVTDPSQVSHGTGFTSFGLLKLGGGGSGGGGSGGGGSQKGDQNPQIAAHVISEASSKTTSVLQWAEKGYYTMSNNLVTLENGKQLTVKRQGLYYIYAQVTFCSNREASSQAPFIASLSLKSPGRFERILLRAANTHSSAKPCGQQSIHLGGVFELQPGASVFVNVTDPSQVSHGTGFTSFGLLKLGGGGSGGGGSGGGGSQKGDQNPQIAAHVISEASSKTTSVLQWAEKGYYTMSNNLVTLENGKQLTVKRQGLYYIYAQVTFCSNREASSQAPFIASLSLKSPGRFERILLRAANTHSSAKPCGQQSIHLGGVFELQPGASVFVNVTDPSQVSHGTGFTSFGLLKL
notes: Knob-into-hole hIgG4 Fc heterodimer made in Expi293F cells; tested as culture supernatant; also called PD1-SIRPα-sc3xCD40L heterodimer
B3: binds [3].
